# Experimental data from PubChem BioAssay AID1956 (SRMLSC, 2009).
# This is one part of the list. The main result of the screen is listed elsewhere. These columns were measured beside it and carry no call.
# Test: compounds boosting herpes simplex virus growth – fold increase, host cell viability (AID 1956); further: tested in PC3 cells
# Conditions: HSV replication augmentation in cells; fold increase: measured here: primary screen fold increase 10 uM, at 10 µM, stronger effect = higher value; viability: measured here: host cell viability series, at 25 µM, stronger effect = lower value
Structure (SMILES),fold increase,viability [%]
O=C(c1cc(COc2ccc3ncccc3c2)on1)N1CCC(O)CC1,1.5,63.2
CC1=CC2=NC(=O)/C(=C/c3coc4ccccc4c3=O)C(=N)N2O1,1.97,92.3
CCCCCCn1c(=O)[nH]c2nc3cc(N)c(C)cc3nc2c1=O,6.65,–
C=CCSc1nc(N)c(C#N)c(-c2ccccc2)c1C#N,1.78,94.3
CCOc1ccccc1-c1cc(C(=O)N/N=C/c2ccc3c(c2)OCO3)c2ccccc2n1,1.13,–
Cc1ccc(N=Cc2nc(/C=C/c3cccc([N+](=O)[O-])c3)oc2O)cc1,1.6,104
Cc1ccc(-n2nc(C)c3c(C)cc(=O)[nH]c32)cc1,1.35,96.6
Cc1ccc(-c2cc(-c3ccco3)c3c(N)c(C(=O)NN)oc3n2)cc1,1.64,91.8
CCOC(=O)C1=C(O)/C(=C\c2ccc(CNS(=O)(=O)c3ccc(Br)cc3)o2)N=C1C,1.35,100
Cc1cc2oc3c(c(=O)c2cc1C)C(c1cccc(Br)c1)N(Cc1ccco1)C3=O (stereo not drawn),1.29,–
C=CCNC(=S)Nc1ccc2nc(C)oc2c1,1.35,91.1
O=c1c(O)c(-c2cccs2)oc2ccccc12,5.2,101
CCOC(=O)c1c(-c2ccc(OC)cc2)csc1/N=C/C1C(=O)CCCC1=O,1.46,97.8
N#Cc1cc(C(=O)c2cc(F)ccc2O)cn(-c2nccs2)c1=O,3.05,–
CCOCCCn1c(SCC(=O)/C(C#N)=C(\C)N)nc2ccccc2c1=O,1.34,104
CCCCC1OC23CCCCC2C(C#N)(C#N)C1(C#N)C(=N)O3 (stereo not drawn),1.94,104
CC1=NN(c2ccccc2)C(=O)/C1=C\C=C1\N(C)c2ccccc2C1(C)C,1.37,93.6
O=C1NC(=Nc2ccccc2)/C(=C/c2ccco2)S1,1.95,90.4
O=C(NC(Cc1ccccc1)C(=O)Oc1ccc2c(C(F)(F)F)cc(=O)oc2c1)OCc1ccccc1 (stereo not drawn),1.79,100
COc1ccc(OC2C(=O)N(CCc3ccc(OC)c(OC)c3)C2c2ccc3c(c2)OCO3)cc1 (stereo not drawn),1.23,–
Cc1cc(/C=C2\Sc3ccccc3N2C)cc(C)[n+]1CC1CCCO1 (stereo not drawn),1.47,44
Oc1c(C=Nc2ccc(Cl)cn2)sc2ccccc12,1.51,91.9
COc1ccc(/C=C/C(=O)c2cc(F)ccc2OC(=O)c2ccccc2)cc1OC,1.07,–

Structure (SMILES),fold increase,viability [%]
C=CCc1c(C)c(C#N)c2nc3ccccc3n2c1N1CCCCC1,1.36,93.9
Cc1c(NC(=O)COC(=O)c2cc(-c3cccc4ccccc34)nc3ccccc23)c(=O)n(-c2ccccc2)n1C,2.09,97.7
CC(C)CC(NC(=O)c1ccco1)C(=O)Nc1ccc2c(c1)OCCO2 (stereo not drawn),1.36,96.4
COc1cccc(C(=O)NC(=S)Nc2ccc3oc(=O)ccc3c2)c1,1.38,–
NC(=O)c1c(NC(=O)C2c3ccccc3Oc3ccccc32)sc2c1CCCCC2,1.34,96.1
COC(=O)c1ccc(NC(=O)CCN2C(=O)CSC2=O)cc1,1.43,94.2
C[n+]1cccc2cccc([O-])c21,1.35,94.7
O=C1/C(=C\c2ccc(O)cc2)SC(=S)N1/N=C/c1ccc(O)cc1,7.29,99.6
Cn1c(Cn2c(=O)sc3ccccc32)nnc1SCC(=O)Nc1ccccc1,1.33,99.2
CCOC(=O)N1CCN(C(=O)C2CC(c3ccccc3OC)=NO2)CC1 (stereo not drawn),1.62,97.8
O=C(Cc1ccc(S(=O)(=O)N2CCCC2)s1)N1CCN(c2ccccc2)CC1,1.94,101
COc1cc(/C=C2\S/C(=N/S(=O)(=O)Cc3ccccc3)NC2=O)c([N+](=O)[O-])cc1OC,1.33,104
COc1ccc(-c2ccc3c(N)c(C(=O)c4cccc(OC)c4)sc3n2)cc1,1.66,92.8
CCN(CC)c1ccc(/C=C/c2nc3ccccc3s2)cc1,5.64,–
CCOC(=O)CSc1n[nH]c(NC(=O)c2ccc(F)cc2)n1,1.37,94.8
CCOc1ccc(-c2nc(CSCC(=O)N3CCN(C(=O)c4ccco4)CC3)c(C)o2)cc1,1.36,99.3
Cc1ccccc1N1C(=O)c2cccc3c(N(C)CCO)ccc(c23)C1=O,2.44,94.2
N#C/C(=C/c1ccc(N2CCCCC2)o1)C(=O)Nc1ccc2ccccc2c1,8.13,74.8
COc1ccc(Cn2c(C)c(C)c(C#N)c2NC(=O)Nc2ccc(F)cc2)cc1,1.24,–
COc1ccc(Cc2nc(-c3ccc(-n4cccc4)cc3)no2)cc1,1.38,102
CN(C=[N+](C)C)c1cccc2c1C(=O)c1ccccc1C2=O,1.34,91.8
CC(=O)c1ccc2c(c1)C1C=CCC1C(c1ccc(S(=O)(=O)N3CCOCC3)cc1)N2 (stereo not drawn),1.43,96.7
COc1ccccc1NC(=O)Nc1ccc2[nH]c(=O)[nH]c2c1,1.52,84.5
